Values joined by “and” are separate entries in the source; they are usually repeats but may differ in a detail not shown here. Identical values can stand only once. Counter-ions that a name gives are not always drawn. About 620 (11%) of roughly 5,800 compounds showed activity.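 The calls were made as follows: active = score above a cut-off or among the top three wells of a plate; in these data no inactive exceeds 0.85.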 The list shows a part of the results, in another mix than the full data.
System: primary human hepatic stellate cells (donor 1)
Experiment: scaled lipid accumulation score (0 = DMSO-like, 1 = nortriptyline-like); higher = stronger HSC inactivation (lipid re-accumulation), active = hit call of the paper
Conditions: 48 h
[1] = library stock concentration: 400 uM
[2] = library stock concentration: 80 uM
[3] = library stock concentration: 2 mM
[4] = library stock concentration: 10 mM
[5] = library stock concentration: 3.33 mM
[6] = library stock concentration: 1 mM
[7] = library stock concentration: 5.4 mM

SMILES: COc1cc2ncnc(Nc3ccc(F)c(Cl)c3)c2cc1OCCCN1CCOCC1 [Gefitinib]
- scaled lipid accumulation score (library stock concentration: 4.5 mM): inactive: 0.19

SMILES: COc1cc2ncnc(Nc3ccc(F)c(Cl)c3)c2cc1OCCCN1CCOCC1 [Gefitinib (ZD1839, Iressa) (0.4 mM)]
- scaled lipid accumulation score [1]: inactive: 0.081

SMILES: COc1cc2ncnc(Nc3ccc(F)c(Cl)c3)c2cc1OCCCN1CCOCC1
- scaled lipid accumulation score [2]: inactive: ≤ -0.003
- scaled lipid accumulation score [1]: inactive: ≤ -0.009
- scaled lipid accumulation score [3]: inactive: 0.19
- scaled lipid accumulation score [4]: inactive: 0.65

SMILES: COc1cc2ncnc(Nc3ccc(F)c(Cl)c3)c2cc1OCCCN1CCOCC1 [Gefitinib (ZD1839)]
- scaled lipid accumulation score [5]: inactive: 0.43

SMILES: C=C(c1ccc(C(=O)O)cc1)c1cc2c(cc1C)C(C)(C)CCC2(C)C [Bexarotene]
- scaled lipid accumulation score [5]: inactive: ≤ 0
- scaled lipid accumulation score (library stock concentration: 5.7 mM): inactive: ≤ -0.006
- scaled lipid accumulation score [4]: inactive: ≤ 0

SMILES: CCCNCC(O)COc1ccccc1C(=O)CCc1ccccc1.Cl (stereo unspecified) [Propafenone hydrochloride]
- scaled lipid accumulation score [4]: active: 0.887

SMILES: CN(C)CCCCC(=O)Nc1ccc(NC(=S)NC(=O)c2ccc(C(C)(C)C)cc2)cc1 [Tenovin-6]
- scaled lipid accumulation score [6]: inactive: 0.143
- scaled lipid accumulation score [4]: inactive: 0.405

SMILES: NS(=O)(=O)c1cc2c(cc1Cl)NC(CC1CCCC1)NS2(=O)=O (stereo unspecified) [Cyclopenthiazide]
- scaled lipid accumulation score: inactive: ≤ 0

SMILES: O=C(O)CCCCC1CCSS1 (racemic) [DL-.alpha.-Lipoic Acid]
- scaled lipid accumulation score [6]: inactive: ≤ 0

SMILES: O=C(O)CCCCC1CCSS1 (racemic) [(?)-alpha-Lipoic Acid]
- scaled lipid accumulation score [4]: inactive: ≤ 0

SMILES: CC(C)(C)NCC(O)c1cc(O)cc(O)c1 (stereo unspecified) [Terbutaline Sulfate]
- scaled lipid accumulation score [4]: inactive: 0.003

SMILES: CC(C)(C)NCC(O)c1cc(O)cc(O)c1 (stereo unspecified) [Terbutaline hemisulfate]
- scaled lipid accumulation score: inactive: 0.031
- scaled lipid accumulation score (library stock concentration: 6.2 mM): inactive: ≤ 0
- scaled lipid accumulation score [4]: inactive: ≤ 0

SMILES: CCOC(=O)[N-]c1c[n+](N2CCOCC2)no1 [Molsidomine]
- scaled lipid accumulation score: inactive: 0.065
- scaled lipid accumulation score [6]: inactive: 0.02
- scaled lipid accumulation score (library stock concentration: 8.3 mM): inactive: ≤ -0.006 and inactive: ≤ 0
- scaled lipid accumulation score [4]: inactive: ≤ 0 and inactive: ≤ -0.05

SMILES: CC[N+](CC)(CC)CCOc1cccc(OCC[N+](CC)(CC)CC)c1OCC[N+](CC)(CC)CC [Gallamine Triethiodide]
- scaled lipid accumulation score [5]: inactive: ≤ 0
- scaled lipid accumulation score [4]: inactive: ≤ 0

SMILES: CC[N+](CC)(CC)CCOc1cccc(OCC[N+](CC)(CC)CC)c1OCC[N+](CC)(CC)CC [Gallamine triethiodide]
- scaled lipid accumulation score: inactive: ≤ 0
- scaled lipid accumulation score [4]: inactive: ≤ -0.056

SMILES: O=C(O)CCC/C=C\C[C@H]1C(=O)C[C@@H](O)[C@@H]1/C=C/[C@@H](O)COc1ccccc1 [16-phenoxy tetranor Prostaglandin E2]
- scaled lipid accumulation score [6]: inactive: ≤ 0

SMILES: Cc1c[nH]c(/C=C2\C(=O)Nc3ccccc32)c1CCC(=O)O
- scaled lipid accumulation score [1]: inactive: 0.001
- scaled lipid accumulation score [3]: inactive: ≤ -0.005
- scaled lipid accumulation score [4]: inactive: 0.017

SMILES: CN[C@@H]1[C@H](O[C@H]2[C@H](O[C@H]3[C@H](O)[C@@H](O)[C@H](NC(=N)N)[C@@H](O)[C@@H]3NC(=N)N)O[C@@H](C)[C@]2(O)CO)O[C@@H](CO)[C@H](O)[C@H]1O [Dihydrostreptomycin sulfate]
- scaled lipid accumulation score: inactive: ≤ 0
- scaled lipid accumulation score (library stock concentration: 2.9 mM): inactive: 0.024
- scaled lipid accumulation score [4]: inactive: ≤ 0

SMILES: NCc1ccc(S(N)(=O)=O)cc1 [Mafenide hydrochloride]
- scaled lipid accumulation score: inactive: ≤ 0
- scaled lipid accumulation score (library stock concentration: 9 mM): inactive: ≤ -0.001
- scaled lipid accumulation score [4]: inactive: ≤ 0

SMILES: NCc1ccc(S(N)(=O)=O)cc1
- scaled lipid accumulation score [4]: inactive: ≤ 0

SMILES: Cc1ccccc1N=Nc1ccc(NC(=O)c2ccnn2C)c(C)c1
- scaled lipid accumulation score [4]: inactive: ≤ -0.006

SMILES: c1ccc(-c2n[nH]c3c2oc2ccccc23)cc1
- scaled lipid accumulation score [5]: inactive: ≤ 0
- scaled lipid accumulation score [4]: inactive: ≤ -0.001

SMILES: CC/C(=C(\c1ccccc1)c1ccc(OCCN(C)C)cc1)c1ccccc1 [Tamoxifen citrate]
- scaled lipid accumulation score: inactive: 0.372
- scaled lipid accumulation score (library stock concentration: 3.5 mM): inactive: 0.611
- scaled lipid accumulation score [7]: inactive: 0.421
- scaled lipid accumulation score [4]: inactive: 0.253 and inactive: 0.681 and inactive: 0.432

SMILES: CC/C(=C(\c1ccccc1)c1ccc(OCCN(C)C)cc1)c1ccccc1 [Tamoxifen Citrate]
- scaled lipid accumulation score [5]: inactive: 0.368
- scaled lipid accumulation score [4]: inactive: 0.579

SMILES: CC/C(=C(\c1ccccc1)c1ccc(OCCN(C)C)cc1)c1ccccc1 [Tamoxifen]
- scaled lipid accumulation score [4]: inactive: 0.674 and inactive: 0.394
- scaled lipid accumulation score (library stock concentration: 13.5 mM): inactive: 0.777

SMILES: c1ccc2oc(C3=NCCN3)cc2c1 [2-BFI hydrochloride]
- scaled lipid accumulation score [4]: inactive: ≤ 0

SMILES: NC(CCC(=O)NC(CSN=O)C(=O)NCC(=O)O)C(=O)O [S-Nitroso-L-glutathione]
- scaled lipid accumulation score [6]: inactive: 0.026

SMILES: COC(=O)C(N)Cc1ccc(Cl)cc1 (racemic) [DL-p-Chlorophenylalanine methyl ester hydrochloride]
- scaled lipid accumulation score [4]: inactive: ≤ 0

SMILES: O=c1c(O)c(-c2ccc(O)c(O)c2)oc2cc(O)cc(O)c12 [Quercetine dihydrate]
- scaled lipid accumulation score: inactive: ≤ 0

SMILES: O=c1c(O)c(-c2ccc(O)c(O)c2)oc2cc(O)cc(O)c12 [Quercetin]
- scaled lipid accumulation score [6]: inactive: 0.019
- scaled lipid accumulation score [5]: inactive: 0.017
- scaled lipid accumulation score [4]: inactive: 0.007 and inactive: 0.079 and inactive: 0.097

SMILES: O=c1c(O)c(-c2ccc(O)c(O)c2)oc2cc(O)cc(O)c12 [Quercetin Dihydrate]
- scaled lipid accumulation score [5]: inactive: 0.003
- scaled lipid accumulation score [4]: inactive: 0.012

SMILES: O=c1c(O)c(-c2ccc(O)c(O)c2)oc2cc(O)cc(O)c12 [Quercetin dihydrate]
- scaled lipid accumulation score [4]: inactive: 0.021

SMILES: Cc1cnc(C(=O)O)c[n+]1[O-] [Acipimox]
- scaled lipid accumulation score [5]: inactive: 0.043
- scaled lipid accumulation score [4]: inactive: 0.023
- scaled lipid accumulation score (library stock concentration: 13 mM): inactive: ≤ 0

SMILES: CC(=O)Nc1cccc(O)c1 [Metacetamol]
- scaled lipid accumulation score [4]: inactive: ≤ 0

SMILES: O=C(c1cncc(Br)c1)N1CCC(N2CCCC2)CC1
- scaled lipid accumulation score [2]: inactive: ≤ 0
- scaled lipid accumulation score [1]: inactive: ≤ 0
- scaled lipid accumulation score [3]: inactive: ≤ 0
- scaled lipid accumulation score [5]: inactive: ≤ -0.009
- scaled lipid accumulation score [4]: inactive: ≤ 0

SMILES: O=C(O)C1(C(=O)O)CCC1.[NH2-].[NH2-].[Pt+2] [Carboplatin]
- scaled lipid accumulation score [7]: inactive: ≤ 0
- scaled lipid accumulation score (library stock concentration: 5.9 mM): inactive: ≤ 0
- scaled lipid accumulation score [4]: inactive: 0.058 and inactive: ≤ 0 and inactive: 0.006

SMILES: CN1CCN(S(=O)(=O)c2ccc(-c3cnc(N)c(C(=O)Nc4cccnc4)n3)cc2)CC1
- scaled lipid accumulation score [4]: active: 1.02

SMILES: CCOc1cc2ncc(C#N)c(Nc3ccc(F)c(Cl)c3)c2cc1NC(=O)C=CCN(C)C
- scaled lipid accumulation score [4]: active: 1.13

SMILES: CNCCC(Oc1ccc(C(F)(F)F)cc1)c1ccccc1.Cl (stereo unspecified) [Fluoxetine hydrochloride]
- scaled lipid accumulation score [4]: active: 1.57

SMILES: COc1ccc2cccc(N3CCN(CCNC(=O)c4ccc(F)cc4)CC3)c2c1
- scaled lipid accumulation score [4]: inactive: 0.585

SMILES: CC(C)NC[C@@H](C(=O)N1CCN(c2ncnc3c2[C@H](C)C[C@H]3O)CC1)c1ccc(Cl)cc1
- scaled lipid accumulation score [4]: active: 0.881

SMILES: CC1=C(C/C=C(\C)CCC[C@H](C)CCC[C@H](C)CCCC(C)C)C(=O)c2ccccc2C1=O [Phylloquinone]
- scaled lipid accumulation score [4]: inactive: 0.106

SMILES: CC1=C(C/C=C(\C)CCC[C@H](C)CCC[C@H](C)CCCC(C)C)C(=O)c2ccccc2C1=O [Phytonadione]
- scaled lipid accumulation score (library stock concentration: 4.4 mM): inactive: 0.012

SMILES: O=C(O)c1cc(I)ccc1NC(=O)[C@H](Cc1ccccc1)NCc1ccccc1
- scaled lipid accumulation score [5]: inactive: ≤ -0.009
- scaled lipid accumulation score [4]: inactive: ≤ 0

SMILES: Cc1ncc(COP(=O)([O-])[O-])c(CN(CCN(CC(=O)O)Cc2c(COP(=O)([O-])O)cnc(C)c2O)CC(=O)O)c1O.[Mn].[Na+].[Na+].[Na+]
- scaled lipid accumulation score [4]: inactive: 0.072

SMILES: CCCCC[C@H](O)/C=C/[C@@H]1[C@@H](C/C=C\CCCC(=O)NCCO)[C@@H](O)C[C@@H]1O [11.beta.-Prostaglandin F2.alpha. Ethanolamide]
- scaled lipid accumulation score [6]: inactive: ≤ 0

SMILES: COc1ccc(C(=O)c2ccccc2O)c(O)c1 [Dioxybenzone]
- scaled lipid accumulation score: inactive: ≤ 0
- scaled lipid accumulation score [4]: inactive: ≤ 0

SMILES: CC(C)(C)NC[C@H](O)COc1ccccc1C1CCCC1 [Penbutolol sulfate]
- scaled lipid accumulation score: inactive: 0.802

SMILES: CCCCCCCCCCCCCCCCOCC(COP(=O)([O-])OCC[N+](C)(C)C)OC (stereo unspecified) [1-Hexadecyl-2-methylglycero-3 PC]
- scaled lipid accumulation score [6]: inactive: 0.043

SMILES: Nc1nc2[nH]cc(CCc3ccc(C(=O)N[C@@H](CCC(=O)O)C(=O)O)cc3)c2c(=O)[nH]1
- scaled lipid accumulation score [4]: inactive: ≤ 0

SMILES: COCCc1ccc(OCC(O)CNC(C)C)cc1 (stereo not drawn) [(?)-Metoprolol (+)-tartrate]
- scaled lipid accumulation score [4]: inactive: ≤ -0.055

SMILES: COCCc1ccc(OCC(O)CNC(C)C)cc1 (stereo unspecified) [Metoprolol Tartrate]
- scaled lipid accumulation score [5]: inactive: ≤ 0
- scaled lipid accumulation score [4]: inactive: 0.026

SMILES: COCCc1ccc(OCC(O)CNC(C)C)cc1 (stereo unspecified) [Metoprolol tartrate]
- scaled lipid accumulation score (library stock concentration: 4.8 mM): inactive: ≤ -0.001
- scaled lipid accumulation score (library stock concentration: 7.5 mM): inactive: ≤ 0
- scaled lipid accumulation score [4]: inactive: 0.013

SMILES: CN(C(=O)c1c(O)c2ccccc2n(C)c1=O)c1ccccc1 [Linomide]
- scaled lipid accumulation score [4]: inactive: 0.031

SMILES: OCc1ccccn1
- scaled lipid accumulation score [4]: inactive: ≤ 0

SMILES: COc1ccc(CN2CCN(C(c3ccc(F)cc3)c3ccc(F)cc3)CC2)c(OC)c1OC [Lomerizine HCl]
- scaled lipid accumulation score [5]: inactive: 0.067
- scaled lipid accumulation score [4]: inactive: 0.386

SMILES: COc1ccc(CN2CCN(C(c3ccc(F)cc3)c3ccc(F)cc3)CC2)c(OC)c1OC
- scaled lipid accumulation score [4]: inactive: 0.282 and inactive: 0.257

SMILES: Nc1ncnc2c1c(-c1cccc(OCc3ccccc3)c1)cn2[C@H]1C[C@H](CN2CCCC2)C1
- scaled lipid accumulation score [5]: active: 1.09

SMILES: CC(C)Cc1ccc(C(C)C(=O)O)cc1 (stereo unspecified)
- scaled lipid accumulation score [4]: inactive: ≤ 0

SMILES: CC(C)Cc1ccc(C(C)C(=O)O)cc1 (stereo unspecified) [(?)-Ibuprofen]
- scaled lipid accumulation score [6]: inactive: 0.029
- scaled lipid accumulation score [4]: inactive: ≤ -0.031

SMILES: CC(C)Cc1ccc(C(C)C(=O)O)cc1 (stereo unspecified) [Ibuprofen]
- scaled lipid accumulation score [5]: inactive: ≤ 0
- scaled lipid accumulation score (library stock concentration: 9.7 mM): inactive: ≤ -0.006 and inactive: ≤ -0.001
- scaled lipid accumulation score [4]: inactive: ≤ 0

— the supplement of paper PMC9135407
